Test results taken from PubChem BioAssay AID1346428 (National Center for Advancing Translational Sciences (NCATS), 2018).
Hit rate of the full screen: of about 48,000 compounds, about 1,200 (2.5%) were called active. Another 2% or so got no clear call; they are omitted.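 How the source made its calls: active means activation of at least 60% and not above a set upper limit (about 1 call in 100 departs from these limits); inconclusive means activation of 40% to 60%, or above that upper limit; inactive means activation under 40%.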 The list shows a part of the results.

Biological target: Probable G-protein coupled receptor 32 (Homo sapiens) (UniProt O75388)
Sequence of UniProt O75388 (O75388 whole entry, looked up): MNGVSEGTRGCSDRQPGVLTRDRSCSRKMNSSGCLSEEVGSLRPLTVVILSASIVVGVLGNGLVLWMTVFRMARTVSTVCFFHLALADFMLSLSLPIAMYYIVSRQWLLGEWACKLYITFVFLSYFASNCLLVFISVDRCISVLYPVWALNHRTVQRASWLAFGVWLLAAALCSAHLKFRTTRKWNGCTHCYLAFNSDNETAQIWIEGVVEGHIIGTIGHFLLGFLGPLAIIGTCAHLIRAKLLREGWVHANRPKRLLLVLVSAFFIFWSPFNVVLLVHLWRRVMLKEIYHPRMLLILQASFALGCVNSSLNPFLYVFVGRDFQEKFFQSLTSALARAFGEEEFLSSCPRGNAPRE
Experiment: qHTS for Agonists of Human Resolvin D1 Receptor DRV1; further: 0% is about no effect
Settings: CHO-K1 GPR32 beta-arrestin PathHunter luminescence, 90 min; at 76.9 µM; active compounds read high; zero percent set by DMSO-only wells
Outline: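 Engineered CHO-K1 line co-expressing GPR32-ProLink and EA-beta-arrestin. Compound treatment lasted 90 min at 37 °C. Luminescence was recorded after 1 h with substrate at ambient temperature, relative to DMSO basal wells.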

Row | Structure (SMILES) | activation
1 | Cc1cccc(NC(=O)Nc2nnc(N(C)C3CCCCC3)s2)c1C | inactive: -4.1%
2 | CCOc1ccccc1-n1ccnc(NCc2ccc(F)cc2)c1=O | inactive: 48.6%
3 | CCc1ccccc1N(C)C(=O)c1cn(CC(C)C)c(=O)c2cc(OC)c(OC)cc12 | inactive: -5.09%
4 | CC(=O)NNC(=O)N1Cc2ccccc2Oc2ccc(Cl)cc21 | inactive: -8.46%
5 | Cc1nn(CC(=O)NCc2ccco2)c(=O)c2cc3ccccc3n12 | inactive: -12.2%
6 | O=C(CCC(=O)N1Cc2ccccc2Oc2ncccc21)Nc1ccc(Cl)cc1 | inactive: -9.14%
7 | COc1ccc(-c2nn(CC(=O)NC3CCCC3)c3c2cnc2ccc(F)cc23)cc1 | inactive: -19.6%
8 | CC1CCN(S(=O)(=O)c2ccc3c(c2)N(CC(=O)NCc2ccccc2)C(=O)CO3)CC1 | inactive: -2.55%
9 | COc1ccc(OC)c(NC2=C(c3ccccc3)C(=O)c3ccccc32)c1 | inactive: -34.4%
10 | COc1ccc(N2CCN(C(=O)c3cc4c(-c5ccccc5F)nn(C)c4s3)CC2)cc1 | inactive: 11.4%
11 | O=C(Cn1ncc2c(=O)oc3ccccc3c21)Nc1cc(F)ccc1F | inactive: -2.34%
12 | COC(=O)c1ccc(Cl)cc1NC(=O)N1CC=C(c2c[nH]c3ccccc23)CC1 | inactive: -28.3%
13 | CCN(CC)c1nc(-c2ccc(C(C)(C)C)cc2)nc2ccccc12 | inactive: 2.78%
14 | Cc1cccc(OCCCC(=O)Nc2sc3c(c2C(N)=O)CCC(C)C3)c1 (stereo not given) | active: 70.3%
15 | O=C(CSc1nc2nccnc2c(=O)n1CCc1c[nH]c2ccccc12)Nc1ccccc1F | inactive: 14.6%
16 | Oc1ccccc1Nc1nc(-c2ccccc2)c2cc(Cl)ccc2n1 | inactive: -15.3%
17 | COc1ccc(/C=C(\C#N)c2nc(-c3cc(Cl)ccc3OC)cs2)cc1 | inactive: 8.7%
18 | O=C1CS(=O)(=O)C2(C(=O)N(Cc3cccc(F)c3)c3ccccc32)N1c1ccccc1 (stereo not given) | inactive: -1.52%
19 | COc1ccc2c(CNCC(C)c3ccccc3)c(C(=O)O)n(Cc3ccc(F)cc3Cl)c2c1 (stereo not given) | inactive: -3.61%
20 | Cc1cccc(N2CCN(c3c(CN4CCCC4)c(=O)oc4ccccc34)CC2)c1C | inactive: -4.76%
21 | CCOC(=O)Cn1nc(N2CCN(c3ccc(F)cc3)CC2)ccc1=O | inactive: 3.64%
22 | CCOC(=O)c1cccc(NC(=O)CCc2c(C)nc3c4cccnc4nn3c2C)c1 | inactive: 7.27%
23 | COC(=O)C1=C(c2ccccc2)c2ccccc2S(=O)(=O)N1CC(=O)Nc1cc(C)ccc1C | inactive: -22.6%
24 | Cc1ccc(CN2C(=O)C3(SCC(=O)N3c3ccc(C)c(C)c3)c3ccccc32)cc1 (stereo not given) | inactive: 7.88%
25 | Cn1c(=O)n(C)c2cc(CNCc3ccc(C(=O)O)cc3)ccc21 | inactive: 3.83%
26 | CSc1ccc(Nc2nn(-c3ccc(OC(F)(F)F)cc3)nc2C(C)=O)cc1 | inactive: -8.85%
27 | Cc1c(C(=O)N2CCOCC2)oc2c1-c1nn(CC(=O)NCc3ccccc3)cc1CC2 | inactive: -14.5%
28 | CCOCCn1ccc2c(OCC(=O)Nc3cc(C(F)(F)F)ccc3Cl)cccc2c1=O | inactive: -8%

Row | Structure (SMILES) | activation
29 | COc1ccccc1Cn1c(CNS(=O)(=O)c2c(C)cc(C)cc2C)nc2cccnc21 | inactive: -25.9%
30 | Cc1ccc2c(c1)N(CC(=O)NCc1cccc(Cl)c1)C(=O)c1cccnc1O2 | inactive: -22.7%
31 | CCn1cc(S(=O)(=O)c2ccccc2)c(=O)c2cc(F)c(N3CCCCCC3)cc21 | inactive: -14.7%
32 | Cc1cccc(C(=O)Nc2cc3c(cc2N2CCCCC2)n(C)c(=O)n3C)c1 | inactive: -11.9%
33 | CC(=O)c1cccc(NC(=O)c2ccc3c(c2)CCN3S(=O)(=O)c2ccccc2)c1 | inactive: -12.4%
34 | CCOCCCn1c(=N)c(S(=O)(=O)c2ccccc2)cc2c(=O)n3cc(C)ccc3nc21 | inactive: -8.72%
35 | Cc1ccccc1OCC(=O)Nc1ccc(S(=O)(=O)Nc2ncccn2)cc1 | inactive: 8.32%
36 | CCOc1ccc(CCNC(=O)c2cc3cc4ccc(OC)cc4nc3s2)cc1OCC | active: 65.1%
37 | O=C(CSc1c2c(nc3ccc(Cl)cc13)CCCC2)N1CCCCC1 | inactive: -24%
38 | COCCNC(=O)C(=O)Nc1ccc2nc3n(c(=O)c2c1)CCCCC3 | inactive: 13.8%
39 | C=Cc1ccc(Cn2c(C(=O)O)c(CNCc3cc(OC)ccc3OC)c3ccc(C)cc32)cc1 | inactive: 23.8%
40 | COc1ccc(C(=O)Oc2c(Sc3ccc(C)cc3)c(C)nn2C(C)(C)C)c(OC)c1 | inactive: -3.42%
41 | Nc1c2c(nc3c1CCC3)CCCC2 | inactive: -2.65%
42 | COc1ccc(-c2nc3c(C#N)c[nH]n3c2NC2CCCCC2)cc1 | inactive: -29.4%
43 | COc1ccc(C2NC(=O)N(C)C3=C2C(=O)N(c2ccccc2)C3)cc1 (stereo not given) | inactive: 4.2%
44 | COc1ccc(-c2nc(C)c(CCNC(=O)c3cccc(C)c3)s2)cc1OC | inactive: 17.2%
45 | COc1ccc(CCNC(=O)C(C)n2nc(C)c3sc4ccccc4c3c2=O)cc1OC (stereo not given) | inactive: -22.3%
46 | CCC12CN3CC(C)(CN(C1)C3c1c(C)[nH]c3ccccc13)C2=O (stereo not given) | inactive: -27.2%
47 | CCOc1ccc(C2C(C(=O)Nc3ccc(C)cc3C)=C(C)Nc3c(C(=O)Nc4ccc(C)cc4)cnn32)cc1OC (stereo not given) | inactive: -11.3%
48 | CC(=O)c1ccc(S(=O)(=O)N2CCC(Oc3ccc(-n4cnnn4)cc3)CC2)cc1 | inactive: -8.41%
49 | O=C(Nc1cccc(C(=O)OCc2cc(=O)n3nc(C4CC4)sc3n2)c1)c1ccc(F)cc1 | inactive: -7.08%
50 | CCCC(=O)NC1CC(=O)N(c2ccc3c(c2)OCCO3)C1 (stereo not given) | inactive: -6.65%
51 | CCc1ccc(NC(=O)CN2C(=O)C(=O)c3ccccc32)cc1 | inactive: -40.2%
52 | O=C(Nc1cccc(Cl)c1)N1Cc2ccccc2Oc2ncccc21 | inactive: -11.4%
53 | Cc1c(C(=O)N(C)C)sc2c1c(=O)n(-c1ccc(Cl)c(Cl)c1)c(=O)n2Cc1ccc(F)cc1 | inactive: -9.69%
54 | COc1ccccc1C1C(C(N)=O)=C(C)Nc2nc(SCc3ccccc3F)nn21 (stereo not given) | inactive: 9.51%
55 | CN(C(=O)CSc1nc2ccc(NC(=O)c3ccc(F)cc3)cc2s1)c1ccccc1 | inactive: 10.5%
